Assay results taken from PubChem BioAssay AID588342 (National Center for Advancing Translational Sciences (NCATS), 2011).
Among all 360,000 compounds or so, about 25,000 (6.9%) were called active. The inconclusive results got no clear call from the source; some entries with a clear call stand among them for comparison. Calls come from the whole dose curve; as a rule, active = well fitted inhibition curve with a large enough effect; inconclusive = small, poorly fitted or top-dose-only effect; inactive = flat fitted curve, though single readings scatter. Potencies of inconclusive entries are doubtful fits and often do not repeat.

target: Luciferin 4-monooxygenase (Photinus pyralis) (UniProt P08659); test: qHTS profiling assay for firefly luciferase inhibitor/activator using purifed enzyme and Km concentrations of substrates (counterscreen for miR-21 project); details: purified FLuc, luminescence inhibition; activity change, negative = inhibition: at 57.5 µM (top of the series); note: nearly all actives have a fitted effect of over 55% in size;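 for activity change, negative = inhibition: plate controls were vehicle for no effect and reference inhibitor for full effect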
Chain of UniProt P08659 (P08659 whole entry, looked up): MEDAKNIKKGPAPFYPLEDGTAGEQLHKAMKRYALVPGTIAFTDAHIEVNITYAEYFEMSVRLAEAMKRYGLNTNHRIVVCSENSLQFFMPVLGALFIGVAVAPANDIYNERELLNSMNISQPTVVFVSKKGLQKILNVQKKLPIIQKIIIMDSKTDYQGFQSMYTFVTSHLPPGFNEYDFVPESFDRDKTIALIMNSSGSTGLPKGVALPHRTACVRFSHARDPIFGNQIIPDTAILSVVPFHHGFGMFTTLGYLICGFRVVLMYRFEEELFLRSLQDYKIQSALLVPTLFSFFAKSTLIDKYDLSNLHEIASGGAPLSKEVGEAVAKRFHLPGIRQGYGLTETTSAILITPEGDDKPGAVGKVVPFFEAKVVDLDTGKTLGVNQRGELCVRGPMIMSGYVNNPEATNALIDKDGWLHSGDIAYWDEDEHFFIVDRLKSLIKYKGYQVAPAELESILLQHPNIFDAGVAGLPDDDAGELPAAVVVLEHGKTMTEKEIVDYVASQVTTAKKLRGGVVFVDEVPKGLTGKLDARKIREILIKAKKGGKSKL
How it was run: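 Biochemical qHTS of compounds, final roughly 60 µM downward over six points, against 10 nM purified firefly luciferase using Km concentrations of substrates (10 uM D-luciferin, 10 uM ATP) in Tris acetate pH 7.5 buffer; luminescence output.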
Potency is the fitted concentration of half-maximal effect; tags give direction and shape of the fitted curve.

Row | Structure (SMILES) | activity change, negative = inhibition | Potency
1 | CCOc1cc(Cl)c(S(=O)(=O)NCCCn2ccnc2)cc1Cl | inactive: 5.54% | 
2 | C=CCn1c(C)cc(C(=O)COc2ncnc3sccc23)c1C |  | active: 2.39 µM
3 | O=C(NCc1ccccc1)c1ccc(OCC2CCCO2)cc1 (stereo unspecified) |  | inconclusive: 19 µM [inhibitor, partial curve, poor fit]
4 | Cc1cc(OCCn2cc(C(=O)c3cccs3)c3ccccc32)ccc1Cl | inactive: 1.08% | 
5 | Cc1ccc(NC(=S)Nc2ccc(F)cc2)cc1 |  | inconclusive: 37.9 µM [inhibitor, single point]
6 | O=C(c1cc(COc2cccc(C(F)(F)F)c2)on1)N1CCC(Oc2cccnc2)CC1 | inactive: -1.12% | 
7 | CN1CCN(S(=O)(=O)c2ccc(N3CCN(c4ccc(O)cc4)CC3)c([N+](=O)[O-])c2)CC1 | inactive: 3.37% | 
8 | COc1ccc(Br)cc1CN1CCSCC1 | inactive: 1.49% | 
9 | CN(Cc1cn[nH]c1-c1ccc(-c2ccccc2)cc1)CC1CCOCC1 |  | inconclusive: 23.9 µM [inhibitor, partial curve, poor fit]
10 | O=C(Nc1ccc2nc(SCC(=O)N3CCOCC3)sc2c1)c1cccc(Cl)c1 |  | inconclusive: 37.9 µM [inhibitor, partial curve, poor fit]
11 | CC1CCN(c2nc3ccccc3nc2N2CCC(C)CC2)CC1 | inactive: 2.89% | 
12 | O=C(O)/C=C/C(=O)Nc1ccc(N2CCOCC2)nc1N1CCOCC1 |  | inconclusive: 42.6 µM [inhibitor, partial curve, poor fit]
13 | CCC1(C)Cc2c(sc3nc(SC)[nH]c(=S)c23)CO1 (stereo unspecified) |  | inconclusive: 37.9 µM [inhibitor, single point]
14 | Cc1c(C(=O)O)cccc1-n1c(C)cc(/C=N/Nc2ccc([N+](=O)[O-])cn2)c1C |  | inconclusive: 37.9 µM [inhibitor, single point]
15 | O=C(Nc1ccc2c(c1)OCO2)c1cc(-c2ccc(O)cc2)on1 |  | inconclusive: 1.69 µM [inhibitor, full curve]
16 | Cc1ccc(S(=O)(=O)NNC2=NS(=O)(=O)c3ccccc32)c(C)c1 |  | inconclusive: 21.3 µM [inhibitor, partial curve]
17 | CCOc1ccccc1CNC(=O)C1CCN(C(=O)N2CC(CC)Oc3ccc(C)cc32)CC1 (stereo unspecified) | inactive: -2.79% | 
18 | CN(C)S(=O)(=O)c1ccc(C(=O)Nc2nnc(-c3cccs3)o2)cc1 |  | inconclusive: 23.9 µM [inhibitor, partial curve, poor fit]
19 | Nc1c(C(=O)N2CCOCC2)sc2nc(N3CCOCC3)c3c(c12)CCCC3 |  | inconclusive: 26.9 µM [inhibitor, partial curve, poor fit]
20 | CCOc1ccc(-c2c(=O)n(OCC)c3ccccc3[n+]2[O-])cc1 |  | inconclusive: 23.9 µM [inhibitor, partial curve, poor fit]
21 | COc1ccccc1N=Nc1c(C)[nH][nH]c1=O |  | inconclusive: 15.1 µM [inhibitor, partial curve, poor fit]
22 | CCN(CC)S(=O)(=O)c1ccc(N2CCOCC2)c(NC(=O)COc2ccc(OC)cc2)c1 |  | inconclusive: 35.5 µM [inhibitor, single point]
23 | COc1ccc2c(c1)CCc1c-2n[nH]c1C(=O)O |  | active: 10.7 µM

Row | Structure (SMILES) | activity change, negative = inhibition | Potency
24 | COc1ccc(C(=O)Nc2nc(-c3ccccc3)c(C(C)=O)s2)c(OC)c1 |  | active: 0.849 µM
25 | CC1CCC/C(=C\Nc2ccc(C(=O)O)cc2)C1=O (stereo unspecified) |  | active: 4.78 µM
26 | COCCCNC(=S)NC(=O)c1ccc(C)cc1 |  | active: 13.5 µM
27 | C#CCNC(=O)C1=C[C@H](C(C)(C)C)C[C@H](OCc2ccc(CO)cc2)O1 | inactive: -0.236% | 
28 | COc1ccc([C@]23Cc4ccccc4C(O2)c2c(cc(C)n(Cc4ccccc4)c2=O)O3)cc1 | inactive: 3.3% [at 11.5 µM] | 
29 | CCCc1cnc2c(c1SCC(=O)N1CCC(C)CC1)c(=O)n(C)c(=O)n2C | inactive: 4.98% | 
30 | c1ccc(-c2nc(-c3cccnc3)n[nH]2)cc1 |  | inconclusive: 37.9 µM [inhibitor, single point]
31 | COc1ccc(CCNc2nc(-c3ccc(F)cc3)c(CC(=O)O)s2)cc1OC |  | inconclusive: 37.9 µM [inhibitor, partial curve, poor fit]
32 | CC(C)[C@H](CO)Nc1nc(Nc2ccc(Cl)c(C(=O)O)c2)c2ncn(C(C)C)c2n1 |  | inconclusive: 21.3 µM [inhibitor, partial curve, poor fit]
33 | CN(C)C(CNC(=O)c1oc2ccccc2c1CSc1ncn[nH]1)c1ccco1 (stereo unspecified) | inactive: 5.61% | 
34 | CC(C)CC(=O)Nc1cccc(-c2cn3ccsc3n2)c1 |  | active: 12 µM
35 | COC(=O)c1ccc(NC(=O)c2cccc(C)c2)cc1 |  | inconclusive: 30.1 µM [inhibitor, single point]
36 | COc1cc(C(F)(F)F)ccc1C(=O)NCCc1ccco1 |  | inconclusive: 23.9 µM [inhibitor, partial curve]
37 | C=CCn1c(SCc2ccc(C(=O)NCCO)cc2)nc2sc(C)c(C)c2c1=O |  | inconclusive: 37.9 µM [inhibitor, partial curve, poor fit]
38 | Cc1cccc(OC(=O)n2c(=S)oc3cc(Cl)ccc32)c1 |  | inconclusive: 26.9 µM [inhibitor, single point]
39 | CCn1nc(NS(=O)(=O)c2ccccc2[N+](=O)[O-])c2cc3cccc(C)c3nc21 |  | inconclusive: 21.3 µM [inhibitor, partial curve, poor fit]
40 | COc1ccccc1C(=O)Nc1cccc(NC(C)=O)c1 |  | inconclusive: 23.9 µM [inhibitor, partial curve, poor fit]
41 | CN1N=C(C(C)(C)C)CSC1=Nc1ccc(F)cc1 |  | inconclusive: 30.1 µM [inhibitor, partial curve, poor fit]
42 | COc1ccc(C2=NOC(C(=O)N3CCCc4ccccc43)C2)cc1 (stereo unspecified) |  | active: 13.5 µM
43 | Cc1ccc2nc(-c3ccccc3)c(NC(=O)c3ccco3)n2c1 | inactive: -13.3% | 
44 | O=C(Nc1cccc(NC(=O)c2cccs2)c1)c1ccc2c(c1)OCO2 |  | active: 15.1 µM
45 | Cc1cccc(S(=O)(=O)Nc2nc3ccccc3nc2OC(C)C)c1 | inactive: 3.13% | 
46 | Cc1ccc(S(=O)(=O)N(C)C)cc1NC(=S)N(C)C1CCN(C)CC1 | inactive: 0.61% | 
